Assay results from ChEMBL document CHEMBL1201862, “PubChem BioAssay data set” (2004).

Test system: NCI-H322M
Experiment: NCI tumour cell line growth inhibition, 48 h

Row | Compound | GI50
1 | C=C[C@H]1CN2CCc3c([nH]c4c([C@@H]5CCCN5C)c(O)ccc34)[C@@H]2C[C@@H]1C[C@H]1c2[nH]c3ccccc3c2CCN1C | inactive: 1.59 µM
2 | O=C(O)CSc1ccc([N+](=O)[O-])cc1[N+](=O)[O-] | inactive: > 100 µM
3 | CC(C)c1cc(CN(C)C)c(O)c(C(C)(C)C)c1 | inactive: > 100 µM
4 | Cc1cc(SCC(=O)c2ccccc2)nc2ccccc12 | inactive: 64 µM
5 | NCC(=O)Nc1ccc(Cl)cc1C(=O)c1ccc[nH]1 | inactive: 97.1 µM
6 | CC(C)CCCCCCCCCCCCC(=O)NCC(=O)NC1C(C)OC(Nc2[nH]cnc3ncnc2-3)C(O)C1O (stereo not given) | active: 0.00141 µM
7 | O=C(O)Cn1ccnc1[N+](=O)[O-] | inactive: > 100 µM
8 | O=C(O)c1cc(C(=O)O)cc(N2C(=O)c3ccccc3C2=O)c1 | inactive: > 100 µM
9 | O=C1C2CCCC2N1Cc1ccccc1 (stereo not given) | inactive: > 100 µM
10 | COc1cc(C)c(C2NC(=O)c3ccccc3N2)cc1C (stereo not given) | inactive: 1.52 µM
11 | C=C(NC(=O)C(=C)NC(=O)c1csc(C2=NC3c4csc(n4)C4NC(=O)c5csc(n5)C(C(C)(O)C(C)O)NC(=O)C5CSC(=N5)/C(=C/C)NC(=O)C(C(C)O)NC(=O)c5csc(n5)C3(CC2)NC(=O)C(C)NC(=O)C(=C)NC(=O)C(=C)NC(=O)C(C(C)C)NC2C=Cc3c(C(C)O)cc(nc3C2O)C(=O)OC4C)n1)C(N)=O (stereo not given) | inactive: 44.5 µM
12 | CC1CC2OC(=O)C(C)C2CC2(C)C(OC3OC(CO)C(O)C(O)C3O)OCCC12 (stereo not given) | inactive: > 100 µM
13 | Cc1cc(C)c(C(=O)c2no[n+]([O-])c2C(=O)c2c(C)cc(C)c(Br)c2C)c(C)c1Br | inactive: 15.4 µM
14 | C[C@H](CCCOS(C)(=O)=O)[C@H]1CC[C@H]2[C@@H]3CC[C@@H]4C[C@H](OS(C)(=O)=O)CC[C@]4(C)[C@H]3CC[C@]12C | inactive: 18.9 µM
15 | Clc1ccc(-c2nnc3c4nnc(-c5ccc(Cl)cc5Cl)n4c4ccccc4n23)c(Cl)c1 | inactive: > 100 µM
16 | Cc1cccc2c(N)c3cccc(C(=O)NCC[N+](C)(C)Cc4ccc([N+](=O)[O-])s4)c3nc12 | inactive: 4.94 µM
17 | O=C(c1ccccc1)C1OC12C(=O)Nc1c(Cl)cc(Cl)cc12 (stereo not given) | inactive: > 100 µM
18 | O=C1[C@@H]2C3SC(c4ccccc43)[C@@H]2C(=O)N1c1ccccc1 | inactive: > 100 µM
19 | CCOc1cc(CCNC)c2c(ccc3ccc(OC)c(O)c32)c1OC | inactive: 15.8 µM
20 | O=C1NC(N2CCCCC2)=N/C1=C\c1cccs1 | inactive: > 100 µM
21 | O=C1Nc2ccccc2/C1=N/Nc1nc(-c2ccc([N+](=O)[O-])cc2)cs1 | inactive: 22.6 µM
22 | CC(=O)Nc1ccc(C(=O)NN2C(=O)C(Cl)C2c2ccc([N+](=O)[O-])cc2)cc1 (stereo not given) | inactive: > 100 µM
23 | Cc1ccc(S(=O)(=O)N/C(=C\C=C\c2ccccc2)C(=O)C(C)(C)C)cc1 | inactive: 26.7 µM

Row | Compound | GI50
24 | O=C(Cc1ccccc1)NN1C(=O)C(Cl)C1c1cccc([N+](=O)[O-])c1 (stereo not given) | inactive: > 100 µM
25 | O=C(O)CNC(=O)C1NC(C(F)(F)F)(C(F)(F)F)OC1(C(F)(F)F)C(F)(F)F (stereo not given) | inactive: > 100 µM
26 | COc1cc(Nc2nc3ccc(C(F)(F)F)cc3nc2-c2ccccc2)cc(OC)c1OC | inactive: 43.4 µM
27 | CCC(=O)N(O)C(C)(C)C | inactive: > 100 µM
28 | CCOC(=O)NC(=O)c1cn(C2OC(CO)C(O)C2O)c(=O)[nH]c1=O (stereo not given) | inactive: > 100 µM
29 | CC1OC(OC2C(O)COC(OC3C(C)OC(OC4C(OC(=O)[C@]56CCC(C)(C)C[C@@H]5C5=CCC7[C@@]8(C)C[C@H](O)[C@H](OC9OC(CO)C(O)C(OC%10OC(CO)C(O)C(O)C%10O)C9O)[C@@](C)(CO)[C@@H]8CC[C@@]7(C)[C@]5(C)CC6)OCC(O)C4O)C(O)C3OC3OCC(O)C(O)C3O)C2O)C(O)C(O)C1O (stereo not given in full) | inactive: 6.85 µM
30 | CCOC(=O)C1(C#N)OC(=O)c2cnccc21 (stereo not given) | inactive: > 100 µM
31 | CN=C(n1ccnc1)n1ccnc1 | inactive: > 100 µM
32 | c1ccc(CSCCc2ccncc2)cc1 | inactive: > 100 µM
33 | NC1=NC2=c3ccccc3=C(c3cnccn3)C2(c2cnccn2)c2ccccc21 (stereo not given) | inactive: > 100 µM
34 | O=C(O)C1C(C(=O)O)C23CC2(C(=O)O)C2(C(=O)O)CCC3=C3CCCC312 (stereo not given) | inactive: 14.3 µM
35 | COc1ccc(CC2c3cc4c(cc3CCN2C)OCO4)c(C=O)c1OC (stereo not given) | inactive: > 100 µM
36 | CC12CCC(=O)N1c1cnccc1N2 (stereo not given) | inactive: > 100 µM
37 | CC(=O)c1ccc(NC(=O)CSc2nc(C)nc3c2sc(=S)n3-c2ccccc2)cc1 | inactive: > 10 µM
38 | O=C(CSC1=NCCN1)Nc1ccccc1 | inactive: 49.8 µM
39 | COc1ccc(C2SCc3nc4ccccc4n32)cc1 (stereo not given) | inactive: 5.02 µM
40 | CC1=CCC2CC1C(C(=O)c1c[nH]c3ccccc13)=NC2(C)C (stereo not given) | inactive: > 100 µM
41 | C1=C\SS/C=C\SS/1 | inactive: 61.2 µM
42 | Cc1cccc(NC(=O)C(=O)C(C2OC(=O)c3ccccc32)[N+](=O)[O-])c1C (stereo not given) | inactive: 16.3 µM
43 | CC(=O)NNc1nc(C)c(C(=O)NNC(=O)C(=O)Nc2nc3ccc([N+](=O)[O-])cc3s2)s1 | inactive: 45.9 µM
44 | CCCC(O)c1cn(-c2cccc(S(=O)(=O)O)c2)nn1 (stereo not given) | inactive: > 100 µM
45 | C/C(=N\NS(=O)(=O)c1c(C)cc(C)cc1C)c1ccc[n+]([O-])n1 | inactive: 45.1 µM

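A five-concentration, 48-hour dose response in 96-well plates underlies each endpoint, interpolated linearly between surrounding concentrations. GI50: concentration for 50% inhibition of growth.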 Calls of active or inactive are those of the source. Rule as the data show it: active = GI50 up to about 1.1 µM and inactive = higher.
